The values below come from the antibiotic and cytotoxicity screens of Wong et al. (2023).

The test system of one assay is HSkMC. The assay is described as follows: cytotoxicity call (relative viability < 0.9). Conditions: 10 µM.
In a further assay the test system is HepG2. The assay is described as follows: cytotoxicity call (relative viability < 0.9). The following applies: 10 µM.
Another assay deals with S. aureus RN4220. The assay is described as follows: growth inhibition call (relative growth <= 0.2). The following applies: 50 µM.

Each structure is given as a SMILES string. This is one part of the list.

In the case of `C[C@H]1CN([C@@H](C)CO)C(=O)Cc2cc(NC(=O)Nc3ccc4c(c3)OCO4)ccc2O[C@H]1CN(C)Cc1ccc(C(=O)Nc2ccccc2N)cc1`, the cytotoxicity call with HSkMC is “inactive”. Besides, in the assay on HepG2, the cytotoxicity call was “active”. Further, the growth inhibition call in the assay on S. aureus RN4220 was “inactive”.
Turning to `CC1CCC2(OC1)OC1CC3C4CC=C5CC(O)CCC5(C)C4CCC3(C)C1C2C` (stereo not drawn), the cytotoxicity call in the assay on HSkMC and in the assay with HepG2 was “inactive” in each case. Also, the growth inhibition call in the assay on S. aureus RN4220 is “inactive”.
Regarding `NC(=O)c1cc[n+](CC2=C(C(=O)[O-])N3C(=O)C(NC(=O)C(c4ccccc4)S(=O)(=O)[O-])C3SC2)cc1.[Na+]` (stereo not drawn), the cytotoxicity call in the assay on HSkMC and in the assay with HepG2 was “inactive” in each case. For the same molecule, the growth inhibition call in the assay with S. aureus RN4220 was “inactive”.
As for `Cc1noc(C)c1NC(=O)N(C)C[C@H]1Oc2ccc(NS(=O)(=O)c3c(C)noc3C)cc2C(=O)N([C@H](C)CO)C[C@@H]1C`, the cytotoxicity call in the assay with HSkMC and with HepG2 was “inactive” throughout. For the same molecule, the growth inhibition call in the assay with S. aureus RN4220 was “inactive”.
On to `O=C(CCCCCNc1nc(=S)[nH]c2ccccc12)N1CCC(O)(c2cccc(C(F)(F)F)c2)CC1`, for which the cytotoxicity call with HSkMC and in the assay with HepG2 was “inactive” each time. Moreover, the growth inhibition call in the assay on S. aureus RN4220 was “inactive”.
`C[C@H](CO)N1C[C@H](C)[C@@H](CN(C)S(=O)(=O)c2ccc(F)cc2)Oc2ccc(NC(=O)c3ccncc3)cc2C1=O`: the cytotoxicity call in the assay on HSkMC and in the assay on HepG2 was “inactive” each time. Also, the growth inhibition call in the assay on S. aureus RN4220 was “inactive”.
In the case of `Cc1ccc(S(=O)(=O)Nc2ccc3c(c2)C(=O)N([C@H](C)CO)C[C@@H](C)[C@@H](CN(C)C(=O)Cc2ccccc2)OCCCC[C@@H](C)O3)cc1`, the cytotoxicity call with HSkMC and in the assay with HepG2 was “inactive” throughout. In addition, the growth inhibition call with S. aureus RN4220 was “inactive”.
Take `CCCN(C)C[C@H]1OCCCC[C@@H](C)Oc2ccc(NC(=O)Cc3ccccc3)cc2C(=O)N([C@@H](C)CO)C[C@H]1C`: the cytotoxicity call in the assay with HSkMC and in the assay with HepG2 was “inactive” in each case. Further, the growth inhibition call with S. aureus RN4220 is “inactive”.
`CC(=O)OCC(=O)C1(O)CCC2C3CCC4=CC(=O)C=CC4(C)C3C(O)CC21C` (stereo not drawn): the cytotoxicity call in the assay on HSkMC and in the assay with HepG2 was “inactive” each time. The growth inhibition call with S. aureus RN4220 is “inactive”.
For the molecule `Nc1nc2nc[nH]c2c(=S)[nH]1`, the cytotoxicity call with HSkMC is “inactive”. In addition, the cytotoxicity call in the assay on HepG2 is “active”. Also, in the assay with S. aureus RN4220, the growth inhibition call is “inactive”.
With `C[C@H]1CCCCO[C@@H](CN(C)C(=O)Nc2ccc(F)cc2)[C@@H](C)CN([C@@H](C)CO)C(=O)c2cc(NS(=O)(=O)c3ccccc3)ccc2O1`, the cytotoxicity call with HSkMC and with HepG2 was “inactive” in each case. The growth inhibition call in the assay on S. aureus RN4220 is “inactive”.
As for `COc1ccc(S(=O)(=O)Nc2ccc3c(c2)C(=O)N([C@@H](C)CO)C[C@H](C)[C@H](CN(C)C(=O)Nc2ccccc2)OCCCC[C@H](C)O3)cc1`, the cytotoxicity call in the assay on HSkMC and in the assay on HepG2 was “inactive” throughout. Besides, the growth inhibition call in the assay on S. aureus RN4220 is “inactive”.
For the molecule `C[C@@H]1CN([C@H](C)CO)C(=O)Cc2cc(NC(=O)CCCCCC(=O)Nc3ccccc3N)ccc2O[C@@H]1CN(C)C(=O)Nc1ccc(F)cc1`, the cytotoxicity call with HSkMC and in the assay with HepG2 was “inactive” each time. The growth inhibition call in the assay with S. aureus RN4220 was “inactive”.
With `COc1ccc(S(=O)(=O)N(C)C[C@H]2OCCCC[C@@H](C)Oc3ccc(NC(=O)Nc4ccccc4)cc3C(=O)N([C@@H](C)CO)C[C@@H]2C)cc1`, the cytotoxicity call in the assay on HSkMC and in the assay on HepG2 was “inactive” in each case. The growth inhibition call in the assay with S. aureus RN4220 is “inactive”.
As for `COC(=O)c1c(CC[C@@H](CO)NC(=O)Nc2ccc(OC)cc2)oc(C(=O)Cc2ccccc2)c1C(=O)OC`, the cytotoxicity call in the assay on HSkMC and in the assay with HepG2 was “inactive” throughout. In addition, in the assay on S. aureus RN4220, the growth inhibition call was “inactive”.
`C[C@@H]1CN([C@H](C)CO)C(=O)c2cccc(NS(=O)(=O)c3ccc(Cl)cc3)c2O[C@@H]1CN(C)Cc1ccc(Oc2ccccc2)cc1`: the cytotoxicity call with HSkMC and in the assay with HepG2 was “inactive” throughout. The growth inhibition call in the assay on S. aureus RN4220 was “inactive”.
With `C[C@H]1CN([C@@H](C)CO)S(=O)(=O)c2ccc(C#CC3(O)CCCC3)cc2O[C@H]1CN(C)C(=O)Nc1ccccc1`, the cytotoxicity call with HSkMC and in the assay on HepG2 was “inactive” each time. Further, the growth inhibition call in the assay on S. aureus RN4220 is “inactive”.
Consider `Cl.Cl.NCCCCN`, for which the cytotoxicity call with HSkMC and with HepG2 was “inactive” throughout. Besides, the growth inhibition call with S. aureus RN4220 was “inactive”.
On to `C[C@H](CO)N1C[C@H](C)[C@@H](CN(C)C(=O)CN(C)C)Oc2cc(-c3cncnc3)ccc2S1(=O)=O`, for which the cytotoxicity call in the assay on HSkMC and in the assay on HepG2 was “inactive” in each case. The growth inhibition call in the assay on S. aureus RN4220 was “inactive”.
Turning to `C[C@@H]1CN([C@@H](C)CO)C(=O)c2cccc(NC(=O)C3CCCCC3)c2O[C@H]1CN(C)Cc1ccc(-c2ccccc2)cc1`, the cytotoxicity call in the assay on HSkMC and with HepG2 was “inactive” each time. Further, the growth inhibition call with S. aureus RN4220 is “inactive”.
As for `C[C@@H]1CN([C@H](C)CO)C(=O)Cc2cc(NS(C)(=O)=O)ccc2O[C@@H]1CN(C)S(=O)(=O)c1ccc(F)cc1`, the cytotoxicity call in the assay on HSkMC and in the assay with HepG2 was “inactive” each time. Besides, the growth inhibition call in the assay on S. aureus RN4220 is “inactive”.
For `Cc1noc(C)c1NC(=O)N(C)C[C@H]1OCCCC[C@@H](C)Oc2ccc(NS(=O)(=O)c3ccc(F)cc3)cc2C(=O)N([C@H](C)CO)C[C@H]1C`, the cytotoxicity call with HSkMC and in the assay on HepG2 was “inactive” each time. Also, the growth inhibition call in the assay on S. aureus RN4220 was “inactive”.
Consider `C=CC[C@H](CC(=O)NCCO)C(=O)N[C@H](COC(=O)[C@@H](CC=C)CC(=O)OC(C)(C)C)Cc1ccccc1`, for which the cytotoxicity call in the assay on HSkMC and with HepG2 was “inactive” each time. Besides, the growth inhibition call with S. aureus RN4220 is “inactive”.
Consider `C[C@@H]1CN([C@H](C)CO)C(=O)c2cc(NC(=O)NC3CCCCC3)ccc2O[C@@H](C)CCCCO[C@H]1CN(C)S(=O)(=O)c1ccc(Cl)cc1`, for which the cytotoxicity call in the assay on HSkMC was “inactive”. The cytotoxicity call in the assay with HepG2 is “active”. Besides, the growth inhibition call in the assay with S. aureus RN4220 is “inactive”.
Regarding `C[C@@H]1CCCCO[C@H](CN(C)C(=O)Cc2ccccc2)[C@H](C)CN([C@@H](C)CO)C(=O)c2cc(NC(=O)Nc3ccc(C(F)(F)F)cc3)ccc2O1`, the cytotoxicity call in the assay on HSkMC was “active”. In addition, the cytotoxicity call with HepG2 is “inactive”. The growth inhibition call in the assay with S. aureus RN4220 was “inactive”.
For `O=C(C[C@H]1CC[C@@H]2NC[C@@H](O)COC[C@H]2O1)NCCN1CCCCC1`, the cytotoxicity call in the assay on HSkMC (human skeletal muscle cells) and in the assay on HepG2 was “inactive” each time. Further, in the assay on S. aureus RN4220, the growth inhibition call is “inactive”.
